Results as given in ChEMBL document CHEMBL4888484, “Replenishing the malaria drug discovery pipeline: Screening and hit evaluation of the MMV Hit Generation Library 1 (HGL1) against asexual blood stage Plasmodium falciparum ,using a nano luciferase reporter read-out” (2022).
About 540 (0.36%) of roughly 150,000 compounds showed an effect of 50% or more. The list shows a part of the results.

The compounds below were run on Plasmodium falciparum (assay: Primary screen in NF54 nanoGlo assay, in single point, at 2uM, 72h; a lower Z score goes with more inhibition). Conditions: timepoint 72 hour.
Type: functional, Erythrocyte

SMILES	% Inhibition [%]	Z score
O=C1OCC[C@@H]1Oc1ncnc2ccccc12	-3	0.47
CC(=O)N1CCC(Nc2cc([C@H]3CCOC3)nc(N3CC(O)C3)n2)CC1	-8	1.61
CC(C)C(C(=O)NC1CCc2nccn2C1)N1CCCCC1 (stereo not drawn)	-8	1.57
Cc1cc(C(=O)N(C(C)C)C2CC2)ccc1N	-8	1.27
COCCN(Cc1cc2ccc(Cl)cc2nc1N1CCC[C@H](CO)C1)C(=O)c1sccc1C	2	-0.41
CN1CCN(C)[C@@H](CC(=O)NCCCCc2ccccn2)C1	-14	1.55
O=c1[nH]c([C@H]2CCC(F)(F)C2)nc2ccc(Br)cc12	-10	1.02
CC(C)c1noc(CN(C)CCN2CCN(c3ccccc3)CC2)n1	-12	1.04
NC(=O)NC1CCC(C(=O)N2CCC[C@H]2C(=O)Nc2cc(Cl)cc(Cl)c2)CC1 (stereo partly drawn)	-5	0.64
O=C(N[C@H]1CCS(=O)(=O)C2(CCC2)C1)c1cc(F)cnc1O	5	-1
CCOC(=O)N1CCc2c(nc(-c3ccc(C)cc3)n(CC(=O)Nc3ccccc3F)c2=O)C1	-13	2.31
CN1CCCc2cc(C(=O)NCc3cccnc3)sc21	-9	1.77
COc1nc2c(cc1CN[C@@H](C)CN(C)C)C(=O)N(C1CCCC1)C2	1	-0.11
CCn1cc(CNc2ccc3nc(N(C)C)oc3c2)cn1	-9	1.27
O[C@H](c1ccccc1)c1nncn1Cc1nnc(-c2ccccc2)s1	-7	1.28
Cc1[nH]ncc1C(=O)N1CCCN(CC(F)F)CC1	-7	0.98
O=C(Nc1ccccc1C(=O)N1CCN(c2cnccn2)CC1)c1cccs1	-6	1
CCn1ccc(CN2CCC[C@H](c3nc(C)n[nH]3)C2)n1	2	-0.43
CC(C)n1nccc1C(=O)NCCOC1CCCCC1	-7	1.18
COCCCn1c(C)cc(C(=O)N(CCN2CCOCC2)C2CCOCC2)c1C	-7	1.21
CC(C)(CCC#N)CN[C@H]1CCOc2ccc(F)cc21	-10	1.14
CCc1c(C(=O)N(C)Cc2ccc3c(c2)OCO3)cnn1C(C)(C)C	-10	2
COCCc1nc([C@@H]2COc3ccccc3O2)n(C)n1	-5	0.52
O=C(Cc1cccc(F)c1)N(c1cccc(F)c1)C1CCOCC1	-5	0.73
C[C@H]1CCCN(C(=O)CCCNC(=O)C(C)(C)C)C1	5	-0.64
COCCc1nc(CNC(=O)c2ccc3c(c2)OCO3)no1	-6	1.18
Cc1ccccc1-n1nc(C(=O)O)c(C)c1Oc1ccc(NC(=O)C2CCC2)cc1S(=O)(=O)NC(C)C	-21	2.1

SMILES	% Inhibition [%]	Z score
O=C(Cn1cncn1)NC1(c2ccc(Cl)c(Cl)c2)CC1	0	0.02
O=C(NCc1ccc(Cl)cc1)c1cccn2c(=O)c3ccccc3nc12	30	-3.42
CC(=O)Nc1ccc(N2Cc3ncccc3C2=O)cc1F	8	-0.76
COC1(CNC(=O)Nc2cccn(CC(F)(F)F)c2=O)CCC1	-3	0.37
C[C@H]1CN(C(=O)CCc2ccncc2)CCN1	-6	1.14
O=C(NCCc1noc([C@@H]2CCCO2)n1)c1ccc(Oc2ccccc2)o1	-10	1.31
C[C@@H](CN(C)Cc1ncccc1C(=O)O)C1CCCCC1	-20	2.09
CCOc1cccc(CN2CCOC[C@H]2c2ccc(COC)o2)n1	0	-0.06
O[C@H]1[C@H](NCc2ccncc2Cl)[C@H]2CO[C@H](O2)[C@@H]1n1cncn1	-4	0.67
CC(=O)N(CCN1CCCCC1)[C@H]1CCCN(C(=O)CC2CCCC2)C1	6	-0.79
CCCc1cc(N2CCN(C(=O)c3cccc4[nH]ccc34)CC2)nc2nnc(CC)n12	-15	1.97
Cc1nn(CC(F)(F)F)c(C)c1CC(=O)N[C@H]1CCO[C@@H]1c1ccnn1C	3	-0.37
CC(=O)NCc1nc(C2CC2)nn1-c1cccc(C)n1	-2	0.37
O=C(Nc1cc(-c2cccc(F)c2F)n[nH]1)c1cscn1	-27	2.27
O=C(c1ccco1)N1CC(Oc2nccs2)C1	-21	3.27
CCNC(=O)[C@@H]1C[C@H](N)CN1Cc1csc(-c2ccccc2)n1	-22	2.56
Cc1ccc(NC(=O)N(C)C(C)C)cc1NC(=O)N(C)C(C)C	31	-3.45
Cc1ccc(CNC(=O)c2cc(-c3ccc(F)cc3)ns2)o1	3	-0.38
CN1CCN(C(=O)c2cnn(-c3ncc4c(n3)-c3ccccc3CCC4)c2C2CC2)CC1	-1	0.14
CCC[C@@]1(C2CCN(C(=O)Cn3nc(C)cc3C)CC2)NC(=O)N(CCc2cccs2)C1=O	-3	0.57
COc1ccc(C(C)(C)NC(=O)c2ncc3n2CCCC3)cc1F	-18	2.54
O=S(=O)(c1cccc2nsnc12)N1CCc2ccccc2C1	-2	0.3
COc1ccc(Cl)cc1NC(=O)Cn1c2c(c(=O)n1-c1ccc(C)cc1C)Cc1cccc(OC)c1O2	-26	2.64
Cc1ccc2nc(-c3ccc(C)s3)cc(C(=O)N3CCC(Cc4ccccc4)CC3)c2c1	-5	0.77
CCNC(=O)NC(=O)COc1ccc(Cl)cc1Cl	-7	1
Cc1cc(N2C[C@H](NC(=O)CN3CC(=O)NC3=O)[C@@H](C3CC3)C2)ncn1	-8	1.06
O=C(Nc1cccc(Cl)c1)c1ccc(-c2cnc(N3CCCC3)nc2)cc1	39	-4.37
